Reference: PubChem BioAssay AID485360 (National Center for Advancing Translational Sciences (NCATS), 2010)
Out of some 230,000 compounds screened, about 1,500 (0.65%) were called active. This list was built around the results that the source calls inconclusive (neither active nor inactive); the mix of calls is not that of the screen. The call rests on the fitted dose curve; in most records, active means well fitted inhibition curve with a large enough effect; inconclusive means small, poorly fitted or top-dose-only effect; inactive means no such curve, though single readings can be large or run the other way. Potencies beside an inconclusive call are fits to weak or partial responses and may not hold up.

Each compound was assayed against Lethal(3)malignant brain tumor-like protein 1 (Homo sapiens) (UniProt Q9Y468) (assay: qHTS Assay for the Inhibitors of L3MBTL1). Settings: AlphaScreen L3MBTL1–H3K9me1 peptide binding; series mostly up to 57.1 µM.
UniProt Q9Y468, sequence (Q9Y468 whole entry, looked up): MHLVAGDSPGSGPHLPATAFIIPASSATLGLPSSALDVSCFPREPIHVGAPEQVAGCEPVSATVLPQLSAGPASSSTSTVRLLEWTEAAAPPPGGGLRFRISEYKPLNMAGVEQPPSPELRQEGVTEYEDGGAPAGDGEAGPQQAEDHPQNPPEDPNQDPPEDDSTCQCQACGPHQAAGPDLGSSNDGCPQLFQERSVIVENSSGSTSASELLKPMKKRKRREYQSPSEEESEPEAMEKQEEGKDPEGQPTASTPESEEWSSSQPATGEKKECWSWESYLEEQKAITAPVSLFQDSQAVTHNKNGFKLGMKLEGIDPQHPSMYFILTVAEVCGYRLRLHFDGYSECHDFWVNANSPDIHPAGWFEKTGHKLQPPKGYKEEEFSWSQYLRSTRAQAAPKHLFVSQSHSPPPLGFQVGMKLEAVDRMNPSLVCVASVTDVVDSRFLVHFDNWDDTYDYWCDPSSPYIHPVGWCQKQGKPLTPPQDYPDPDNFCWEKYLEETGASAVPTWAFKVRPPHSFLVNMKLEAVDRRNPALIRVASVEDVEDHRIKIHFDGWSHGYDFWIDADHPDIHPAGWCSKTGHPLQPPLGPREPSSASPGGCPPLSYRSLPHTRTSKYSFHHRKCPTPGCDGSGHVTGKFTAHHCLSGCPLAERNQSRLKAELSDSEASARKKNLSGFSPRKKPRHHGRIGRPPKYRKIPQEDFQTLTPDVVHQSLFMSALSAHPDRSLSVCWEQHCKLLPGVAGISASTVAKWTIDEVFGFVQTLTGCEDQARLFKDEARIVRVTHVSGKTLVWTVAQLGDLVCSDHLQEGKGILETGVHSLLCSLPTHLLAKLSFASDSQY
In short: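 Displacement of a biotinylated histone H3(1-15) peptide monomethylated at Lys9 (75 nM) from L3MBTL1 (50 nM) was measured by AlphaScreen after a 30 min room-temperature compound incubation; cefsulodin titration served as intraplate control.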
Further: nearly all actives have a fitted effect of over 60% in size.
Potency means the concentration at half of the fitted maximal effect; tags describe the fitted curve by direction and shape.

| SMILES | Potency |
| --- | --- |
| O=C(CCCN1C(=O)/C(=C\c2cccs2)SC1=S)NNC(=O)c1cccnc1 | inactive |
| CC(C)c1nc(NCc2ccccc2)c(C#N)c2c1CCCC2 | inactive |
| O=C(/C=C/c1ccc([N+](=O)[O-])cc1)N(c1ccccn1)C1CCCCC1 | inconclusive: 28.2 µM [inhibitor, single point] |
| Cc1ccc(C(=O)COC(=O)c2cc(=O)[nH]c3ccccc23)cc1 | inconclusive: 0.891 µM [inhibitor, partial curve] |
| COc1ccc(/C=C/c2ccc(=O)n(Cc3ccccc3)n2)cc1 | inactive |
| COc1ccccc1NC(=O)CC(NCc1ccccc1)C(=O)O (centres undefined) | inconclusive: 6.31 µM [inhibitor, single point] |
| CCOC(=O)n1c(=O)n(C)c2ccc(Cl)cc21 | inconclusive: 0.1 µM [inhibitor, full curve, poor fit] |
| Cc1c(C(=O)NN)nn(-c2ccc(Cl)cc2)c(=O)c1C#N | inconclusive: 2.82 µM [inhibitor, full curve, poor fit] |
| Cc1cc(F)ccc1NCc1cc2c(cc1[N+](=O)[O-])OCO2 | inconclusive: 39.8 µM [inhibitor, single point] |
| CC(C)N1C(=O)S/C(=C\c2ccc(-c3ccc(Cl)c(C(=O)O)c3)o2)C1=O | inconclusive: 25.1 µM [inhibitor, single point] |
| C/C(N)=C(/C#N)C(=O)CSc1nc2ccccc2c(=O)n1Cc1ccc(F)cc1 | inconclusive: 10 µM [inhibitor, partial curve] |
| C=CCNC(=O)/C(C#N)=C/c1ccc(C)o1 | inconclusive: 0.562 µM [inhibitor, full curve, poor fit] |
| COc1cccc(OCCCn2ccnc2)c1 | inactive |
| C/C(=N\Nc1cc(C)nc(-c2ccccc2O)n1)c1ccccc1 | inactive |
| C/C(=N\NC(=O)C1COc2ccccc2O1)c1ccccn1 (centres undefined) | inconclusive: 20 µM [inhibitor, partial curve] |
| N#CC(C#N)=C1C=CC=CN1/C(=C\c1ccco1)C(=O)c1ccccc1 | inconclusive: 6.31 µM [inhibitor, single point] |
| CCOc1cc(N2CCOCC2)c(OCC)cc1NC(=O)c1c(-c2ccccc2Cl)noc1C | inconclusive: 11.2 µM [inhibitor, single point] |
| COc1ccccc1CNC(=O)Cc1ccc(Br)cc1 | inactive |
| O=C(O)CSCC(=O)Nc1ccc(-c2nc3ccccc3s2)cc1 | inactive |
| CC(=O)C1=C(C)N(CC2CC2)C(=O)N[C@H]1c1cccs1 | inactive |
| COCCN(C(=O)COC(=O)c1cc2c(s1)CCC2)c1c(N)n(Cc2ccccc2)c(=O)[nH]c1=O | active: 2.51 µM |
| CCn1c(=O)c(C(=O)Nc2ccccc2C)c(O)c2ccccc21 | inconclusive: 6.31 µM [inhibitor, single point] |
| CC(=O)c1c(C)nc(-c2ccc(Cl)cc2)nc1N=CN(C)C | inactive |

| SMILES | Potency |
| --- | --- |
| O=c1[nH]c2ccc(NCc3ccccc3OCc3ccc(Cl)cc3)cc2[nH]1 | inconclusive: 28.2 µM [inhibitor, partial curve] |
| O=C(O)/C=C/C(=O)Nc1ccccc1SC(F)(F)F | inconclusive: 39.8 µM [inhibitor, single point] |
| COc1ccc(/C=C2\SC(=S)N(C(Cc3ccccc3)C(=O)O)C2=O)cc1 (centres undefined) | inconclusive: 0.355 µM [inhibitor, full curve, poor fit] |
| CSc1nsc(/C=C/Nc2ccc(F)cc2F)c1C#N | inconclusive: 28.2 µM [inhibitor, single point] |
| CN(NS(=O)(=O)c1ccc(F)cc1)c1ncc(C(F)(F)F)cc1Cl | inconclusive: 35.5 µM [inhibitor, single point] |
| CCO[C@@H]1OC(C(=O)N2CCOCC2)=C[C@H](c2cn(C(C)=O)c3ccccc23)[C@H]1CCCO | inconclusive: 0.794 µM [inhibitor, single point] |
| CCOC(=O)Cc1cc(=O)n(-c2nc3ccccc3s2)[nH]1 | active: 28.2 µM |
| Cc1nc2ccccc2nc1N/N=C/c1ccc(O)cc1O | active: 14.1 µM |
| N#C/C(=C\c1ccc(-c2cccc([N+](=O)[O-])c2)o1)c1nnc(N2CCOCC2)n1-c1ccccc1 | inactive |
| Cc1cccc(CNc2ncc(-c3cccc([N+](=O)[O-])c3)n2C)c1 | inconclusive: 25.1 µM [inhibitor, partial curve] |
| CC(C)C[C@H]1CN=C(Nc2ccccc2)N1CC1CCCCCC1 | inactive |
| C=CCn1c(SCC(=O)NC(=O)NCc2ccco2)nc2sc(CC)cc2c1=O | inconclusive: 28.2 µM [inhibitor, single point] |
| COc1cc2c(cc1OC)C1=CC(=O)C(=O)N1C(C)(C)C2 | inconclusive: 7.94 µM [inhibitor, partial curve] |
| Cc1cc(C)c(S(=O)(=O)Nc2cc(SCC(=O)O)c(O)c3ccccc23)cc1C | inconclusive: 28.2 µM [inhibitor, partial curve] |
| COc1ccc(N2CCN(C(c3cccs3)C(C)NS(=O)(=O)c3ccccc3)CC2)cc1 (centres undefined) | inconclusive: 35.5 µM [inhibitor, partial curve] |
| CN(C)C1(CNC(=O)C2CCN(S(=O)(=O)c3c(Cl)cccc3Cl)CC2)CCCCC1 | inactive |
| CCCCC1C(=O)CC[C@H]2[C@@H]1CC(=O)[C@@H]2C/C=C\CCCC(=O)O (some centres undefined) | inactive |
| CCS(=O)(=O)N1Cc2ccccc2CC1C(=O)Nc1nnc(SCc2ccc(C#N)cc2)s1 (centres undefined) | active: 17.8 µM |
| COc1ccc(-c2nnn(CC(=O)N(c3cccc(O)c3)C(C)C(=O)NC3CCCC3)n2)cc1OC (centres undefined) | inconclusive: 39.8 µM [inhibitor, single point] |
| CCCC(c1nnnn1C(C)(C)C)N1CCN(Cc2ccccc2OC)CC1 (centres undefined) | inconclusive: 10 µM [inhibitor, partial curve] |
| COC(=O)c1cnn2c(C(F)(F)F)cc(-c3ccc(F)cc3)nc12 | inconclusive: 11.2 µM [inhibitor, full curve, poor fit] |
| Cc1ccc(C)c(S(=O)(=O)N2CCN(Cc3ccc(O)c4ncccc34)CC2)c1 | inconclusive: 31.6 µM [inhibitor, single point] |
| CCC(=O)c1ccc(OCC(O)CN2CCN(c3ccccn3)CC2)cc1 (centres undefined) | inactive |

| SMILES | Potency |
| --- | --- |
| COc1ccccc1/C=c1\sc2nc(-c3ccco3)nn2c1=O | active: 12.6 µM |
| O=C(CSc1ccncc1)Nc1ccc(S(=O)(=O)Nc2nccs2)cc1 | inconclusive: 25.1 µM [inhibitor, single point] |
| Cc1nnc(-c2ccccc2)c(=O)n1/N=C/c1c(O)ccc2ccccc12 | inconclusive: 28.2 µM [inhibitor, partial curve] |
| COc1ccc(C)cc1NC(=O)CC(NC(C)=O)c1ccccc1 (centres undefined) | inconclusive: 0.1 µM [inhibitor, full curve] |
| CC(C)N(Cc1ccccc1)C(=O)COC(=O)c1cc(S(=O)(=O)N(C)C)ccc1N1CCCC1 | inactive |
| CCOc1cc(CO)cc(Br)c1OCC(=O)Nc1ccccc1C | inactive |
| COC(=O)c1cc(NS(=O)(=O)c2ccc(OC)c(OC)c2)ccc1Cl | inconclusive: 2.51 µM [inhibitor, single point] |
| COc1ccc2nc(N3C(=O)CC(Cc4ccc(C)cc4)C3=O)sc2c1 (centres undefined) | inconclusive: 39.8 µM [inhibitor, partial curve, poor fit] |
| O=C(/C=C/c1ccc(Br)o1)OCc1nc2ccsc2c(=O)[nH]1 | active: 3.16 µM |
| COC(=O)c1ccccc1NC(=O)CCS(=O)(=O)c1ccc(Br)cc1 | active: 8.91 µM |
| O=C(N=Nc1c(O)n(Cc2ccccc2)c2ccccc12)c1ccncc1 | inconclusive: 25.1 µM [inhibitor, single point] |
| Cc1cc(NC(=O)C(=O)NCCN2CCN(C(=O)c3cccs3)CC2)ccc1Br | inconclusive: 5.62 µM [inhibitor, single point] |
| COc1ccc(S(=O)(=O)Nc2cc3c4c(c2)CCC(=O)N4CCC3)cc1 | inactive |
| O=S(=O)(Nc1ccc(N=Nc2ccc(O)c3ccccc23)cc1)c1ccccc1 | inconclusive: 14.1 µM [inhibitor, single point] |
| N#Cc1nc(Cc2cccc3ccccc23)oc1N1CCCCC1 | inconclusive: 28.2 µM [inhibitor, partial curve] |
| Cc1c(NC(=S)N/N=C\c2ccccc2O)c(=O)n(-c2ccccc2)n1C | inconclusive: 25.1 µM [inhibitor, single point] |
| Oc1csc(Cc2nc(-c3ccccc3F)cs2)n1 | inconclusive: 0.398 µM [inhibitor, full curve, poor fit] |
| COc1cc(/C=N/NC(=O)c2nonc2N)cc(OC)c1OC | inconclusive: 5.62 µM [inhibitor, full curve] |
| Cc1ccc(NS(=O)(=O)c2ccc(N3CCN(c4ccc(O)cc4)CC3)c([N+](=O)[O-])c2)c(C)c1 | inconclusive: 25.1 µM [inhibitor, partial curve] |
| COc1cccc2c1-c1c(O)cccc1C2=O | inactive |
| COc1cc(OC)cc(C(=O)NCC(=O)OCC(=O)/C=C2/N(C)c3ccccc3C2(C)C)c1 | inconclusive: 25.1 µM [inhibitor, partial curve] |
| CN1CCN(S(=O)(=O)c2ccc(-c3ccc(Cl)cc3)cc2)CC1 | inconclusive: 2.82 µM [inhibitor, single point] |
| O=[N+]([O-])c1cc(C(F)(F)F)cc([N+](=O)[O-])c1NN=C1CCCCC1 | inconclusive: 15.8 µM [inhibitor, partial curve] |
